# Key:
# microtubule plus ends = experiment: Steady-state dynamic instability of individual microtubules by DIC video microscopy; assay type: biochemical, bovine; details: previous results, 0.1 μM dicoumarol
# Method: Analysis of dynamic instability behavior of individual microtubules at steady state was conducted with real-time DIC video microscopy as described by Walker et al. (1988) J. Cell Biol. 107:1437-1448 and Panda et al. (1995) Biochem 34:9921-9929, both of which are herein incorporated by reference. A Hamamatsu C2400 Newvicon video camera was used to capture the images of microtubules which were enhanced with a Hamamatsu DVS3000 digital image processor. Analysis of length changes was performed using a video analysis software program designed by N. Gliksman at the University of North Carolina.
# Microtubules were grown at the ends of sea urchin flagellar axonemal fragments (seeds) to distinguish the plus and minus ends. […] The individual dynamic instability parameters were analyzed quantitatively. […]
# After 35 minutes of incubation, samples of microtubule suspensions (2.5 μl and 2.0 μl) were prepared for video microscopy, and the dynamics of individual microtubules were recorded at 37° C. as described previously (Panda et al. (1995) Biochem. 34:9921-9929, which is herein incorporated by reference).
# The microtubule was determined to be in a growing phase if the microtubule increased in length by >0.2 μM at a rate >0.15 μm/min and in a shortening phase if the microtubule shortened in length by >0.2 μM at a rate >0.3 μm/min. […]
# HeLa cells = experiment: HeLa cell assay of mitotic spindle and chromosome organization (immunofluorescence); details: about 10 μM dicoumarol, about 20 hours
smiles,measurement,setting,value
O=c1oc2ccccc2c(O)c1Cc1c(O)c2ccccc2oc1=O [dicoumarol],reduction of dynamicity,microtubule plus ends,about 64%
same,organization of mitotic spindle microtubules,HeLa cells,abnormal organization of mitotic spindle microtubules
